“And” between values parts separate entries of the source, which are not always exact repeats. Identical values can stand only once. The campaign covered roughly 350,000 compounds. About 31,000 (8.9%) were called active. The inconclusive results got no clear call from the source; some entries with a clear call stand among them for comparison. The call rests on the fitted dose curve; in most records, active means well fitted inhibition curve with a large enough effect; inconclusive means small, poorly fitted or top-dose-only effect; inactive means no such curve, though single readings can be large or run the other way. Where the call is inconclusive, the potency comes from a doubtful curve fit.
Each compound was assayed against Histone-lysine N-methyltransferase EHMT2 (Homo sapiens) (UniProt Q96KQ7) (assay: qHTS Assay for Inhibitors of Histone Lysine Methyltransferase G9a). Conditions: G9a H3K9 monomethylation, AlphaScreen, 2 h; activity, negative = inhibition: at 59 µM (top of the series) unless noted.
Sequence of UniProt Q96KQ7 (Q96KQ7 whole entry, looked up): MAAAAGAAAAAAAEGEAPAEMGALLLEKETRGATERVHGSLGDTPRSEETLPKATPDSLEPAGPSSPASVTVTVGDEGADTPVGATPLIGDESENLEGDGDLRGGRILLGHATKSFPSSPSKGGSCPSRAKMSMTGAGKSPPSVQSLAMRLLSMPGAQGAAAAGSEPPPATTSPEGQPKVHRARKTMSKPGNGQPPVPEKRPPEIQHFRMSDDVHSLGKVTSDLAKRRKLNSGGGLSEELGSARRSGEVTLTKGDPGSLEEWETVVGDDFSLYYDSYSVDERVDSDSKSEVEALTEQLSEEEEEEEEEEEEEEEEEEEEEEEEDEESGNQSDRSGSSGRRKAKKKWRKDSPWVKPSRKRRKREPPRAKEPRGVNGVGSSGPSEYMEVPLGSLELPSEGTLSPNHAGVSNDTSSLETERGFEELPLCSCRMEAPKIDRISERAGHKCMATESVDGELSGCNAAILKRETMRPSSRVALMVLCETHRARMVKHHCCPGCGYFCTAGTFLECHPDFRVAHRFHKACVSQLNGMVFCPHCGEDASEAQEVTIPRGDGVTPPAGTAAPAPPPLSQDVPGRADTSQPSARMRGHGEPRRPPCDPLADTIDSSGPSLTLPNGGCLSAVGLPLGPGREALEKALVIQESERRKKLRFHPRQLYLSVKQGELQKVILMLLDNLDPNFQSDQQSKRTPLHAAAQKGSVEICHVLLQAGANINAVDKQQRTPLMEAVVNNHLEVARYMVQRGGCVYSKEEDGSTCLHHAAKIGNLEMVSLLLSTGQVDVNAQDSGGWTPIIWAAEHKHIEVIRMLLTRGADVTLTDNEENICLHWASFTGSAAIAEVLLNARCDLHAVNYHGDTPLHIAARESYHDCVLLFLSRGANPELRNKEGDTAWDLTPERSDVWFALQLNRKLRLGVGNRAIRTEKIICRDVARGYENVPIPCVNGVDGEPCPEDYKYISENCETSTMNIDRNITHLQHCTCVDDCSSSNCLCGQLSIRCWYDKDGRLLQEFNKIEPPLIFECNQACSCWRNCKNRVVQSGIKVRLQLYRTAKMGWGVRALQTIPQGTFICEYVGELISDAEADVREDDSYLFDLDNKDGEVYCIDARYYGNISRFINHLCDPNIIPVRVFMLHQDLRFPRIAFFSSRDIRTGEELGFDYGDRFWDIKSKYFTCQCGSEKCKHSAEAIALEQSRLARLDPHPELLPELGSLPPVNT
Procedure, shortened: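 Signal arises when biotinylated H3K9 peptide, once monomethylated, bridges streptavidin donor and antibody-captured acceptor beads. Enzyme at 20 nM was preincubated 15 min with test compounds; peptide 500 nM and SAM 20 uM then reacted for 2 h.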
Further: nearly all actives have a fitted effect of over 75% in size.
On the % scale 0 is the no-effect control and ±100 the full control effect; potency means the concentration at half of the fitted maximal effect; tags describe the fitted curve by direction and shape.

Row | Structure (SMILES) | Potency | activity, negative = inhibition
1 | COC(=O)CSc1nnc(NC(=O)C2CC(=O)N(c3ccc(F)cc3)C2)s1 (configuration not stated) | active: 39.8 µM | –
2 | O=C(OCCN1CCCCC1)c1ccccc1Br | inconclusive: 89.1 µM [inhibitor, single point] | –
3 | Cc1ccc(-c2cc(C(=O)N/N=C/C=C/c3ccco3)c3ccccc3n2)cc1C | active: 44.7 µM | –
4 | COCCNC(=O)/C(C#N)=C/C=C/c1ccccc1[N+](=O)[O-] | inactive | –
5 | CCn1cc(C2=NOC(C(=O)Nc3cc(C)nn3-c3ccccc3)C2)c(C)n1 (configuration not stated) | – | inconclusive: -78.6% [inhibitor]
6 | Cc1ccc(NC(=O)[C@@H]2CCCN2C(=O)[C@@H]2Cc3ccccc3CN2)c(C)c1 | active: 50.1 µM | –
7 | COc1ccc2c(C)cc3n[nH]c(=S)n3c2c1 | active: 1 µM | –
8 | Cc1ccc(OCC(=O)Nc2ccccc2OCc2cc(=O)n3ccccc3n2)cc1C | inactive | –
9 | CC(=O)c1ccc(Cc2ccc(C(C)=O)cc2)cc1 | inactive | –
10 | O=C(NC(=S)Nc1ccccc1O)c1cccnc1 | – | inactive: 17.6% [at 0.501 µM]
11 | CCOC(=O)C1CCCN(C2CC(=O)N(c3ccc(C)cc3)C2=O)C1 (configuration not stated) | inconclusive: 89.1 µM [inhibitor, single point] | –
12 | COc1ccc(C(=O)NCC(c2ccc(N(C)C)cc2)N2CCc3ccccc32)cc1OC (configuration not stated) | active: 25.1 µM | –
13 | COC(=O)c1ccccc1NC(=O)C1CCN(C(=O)N2CC(C)Oc3ccccc32)CC1 (configuration not stated) | inactive | –
14 | COc1ccc(NCc2nnc(SCC(=O)Nc3nc(-c4ccccc4)cs3)n2-c2ccccc2)cc1 | inactive | –
15 | O=C(O)c1ccccc1NC(=O)C1C2C=CC(C2)C1C(=O)O (configuration not stated) | inconclusive: 89.1 µM [inhibitor, single point] | –
16 | O=C(NCCCN1CCCCCC1)c1ccc2c(c1)NC(=O)C(N1CCOCC1)S2 (configuration not stated) | inconclusive: 22.4 µM [inhibitor, single point] | –
17 | O=C(COc1ccc(Cl)cc1)OCc1cc(=O)n2nc(C3CC3)sc2n1 | inactive | –
18 | CN(C)S(=O)(=O)c1cc(NC(=O)CSc2ncc(C(F)(F)F)cc2Cl)ccc1Cl | inconclusive: 89.1 µM [inhibitor, single point] | –
19 | N/C(=N\OC(=O)CCCc1ccccc1)c1ccccc1Cl | inactive | –
20 | Cc1ccccc1/C=N\NC(=O)c1csnn1 | inconclusive: 2 µM [inhibitor, full curve, poor fit] | –
21 | O=C(/C=C/c1ccccc1)NC(NC(=S)Nc1ccc(C(=O)O)cc1)C(Cl)(Cl)Cl (configuration not stated) | inconclusive: 3.16 µM [inhibitor, full curve, poor fit] | –
22 | COc1ccc(N(C)C2=NS(=O)(=O)c3ccccc32)cc1 | inconclusive: 22.4 µM [inhibitor, partial curve, poor fit] | –
23 | c1ccc(-c2nc(NCc3ccco3)c3ccccc3n2)cc1 | inconclusive: 25.1 µM [inhibitor, single point] | –
24 | O=C(Nc1ccc(F)cc1)Nc1ccccc1NS(=O)(=O)c1cccs1 | inconclusive: 79.4 µM [inhibitor, single point] | –

Row | Structure (SMILES) | Potency | activity, negative = inhibition
25 | N#Cc1c(-c2ccncc2)c2c([nH]c1=S)CCCC2 | active: 2.24 µM | –
26 | O=C(NCc1ccc2c(c1)OCO2)C1CCN(S(=O)(=O)c2cccc3nsnc23)CC1 | inactive | –
27 | COc1ccc([N+](=O)[O-])cc1NC(=O)CSc1ccc2ccccc2c1 | inconclusive: 39.8 µM [inhibitor, single point] | –
28 | Cn1c(CN2CCN(c3ccccc3NS(C)(=O)=O)CC2)nc2ccccc21 | inconclusive: 1.41 µM [inhibitor, single point] | –
29 | CCCCC(=O)NNC(=O)N1c2ccccc2Sc2ccccc21 | inconclusive: 89.1 µM [inhibitor, single point] | –
30 | CCOC(=O)c1c(C)[nH]c(C)c1C(=O)CSc1nc2ccccc2[nH]1 | inconclusive: 79.4 µM [inhibitor, single point] | –
31 | CC(=O)/C(=N\Nc1cccc(Cl)c1)Sc1nnc(-c2ccccc2)n1-c1ccccc1 | inconclusive: 22.4 µM [inhibitor, single point] | –
32 | C=CCN(CC=C)c1ccc(N2C(=O)C3CCCCC3C2=O)cc1[N+](=O)[O-] (configuration not stated) | active: 22.4 µM | –
33 | CCOC(=O)Cn1c(=O)oc2cc(S(=O)(=O)N3CCN(c4cccc(C)c4)C(C)C3)ccc21 (configuration not stated) | inactive | –
34 | O=C1CCSC2(C(=O)N(Cc3ccc(F)cc3)c3ccccc32)N1c1ccc(Cl)cc1 (configuration not stated) | inconclusive: 10 µM [inhibitor, partial curve, poor fit] | –
35 | COCCNc1c(-c2cc3ccc(C)c(C)c3[nH]c2=O)nc2ccccn12 | inconclusive: 79.4 µM [inhibitor, partial curve, poor fit] | –
36 | CC1(C)Cc2c(sc3nnn(Cc4ccc(Cl)cc4)c(=O)c23)CO1 | inconclusive: 5.62 µM [inhibitor, full curve, poor fit] | –
37 | C=C(C)C(=O)Nc1cccc(C2=NOC3(C2)C[C@@H](C(N)=O)N(C(=O)c2ccc(Cl)cc2)C3)c1 (some centres not stated) | – | inconclusive: -107% [inhibitor] [at 12.7 µM]
38 | CCOC(=O)c1nn(-c2ccc(F)cc2)c(=O)cc1OCC(=O)Nc1cccc(C)c1 | inconclusive: 1.26 µM [inhibitor, partial curve, poor fit] | –
39 | CCOC(=O)c1cc(C#N)c(N)nc1C | inactive | –
40 | CN(C)c1ccc(Nc2nc(N)c3ccccc3n2)cc1 | active: 10 µM | –
41 | N#Cc1nc(-c2ccc(COc3ccccc3)o2)oc1N1CCN(c2ccccc2)CC1 | inconclusive: 1.41 µM [inhibitor, full curve] | –
42 | N#C/C(=C\c1ccc(-c2ccccc2[N+](=O)[O-])o1)C(=O)N1CCOCC1 | inconclusive: 39.8 µM [inhibitor, partial curve] | –
43 | COc1cnc(-c2ccccn2)nc1Oc1cccc(C(F)(F)F)c1 | inactive | –
44 | Cc1c(CCOC(=O)c2ccccc2)sc[n+]1Cc1ccccc1 | inactive | –
45 | Cc1cc2cc(CNC(=O)c3cccs3)ccc2[nH]1 | inconclusive: 31.6 µM [inhibitor, single point] | –
46 | COCCN(Cc1ccco1)C(=O)c1cc2c(=O)[nH]c3ccc(C)cc3c2s1 | inactive | –
47 | COc1cc2cc(CNc3ccccc3)c(=O)n(CC(=O)Nc3ccc(C)c(Cl)c3)c2cc1OC | inactive | –
48 | Cc1ccc(C2/C(=C(/O)c3ccc4c(c3)CC(C)O4)C(=O)C(=O)N2CCCn2ccnc2)cc1 (configuration not stated) | active: 44.7 µM | –

Row | Structure (SMILES) | Potency | activity, negative = inhibition
49 | COCCOC(=O)C1=C(C)NC(C)=C(C(=O)OCCOC)C1/C=C/c1ccccc1OC | inactive | –
50 | COc1ccc2c(-c3ccccc3)cc(N3CCOCC3)nc2c1 | active: 2.24 µM | –
51 | O=C(Nc1cccc(Cl)c1N1CCCC1)c1ccc(Br)o1 | – | inconclusive: -66.8% [inhibitor]
52 | Cc1ccc(C(OCC(O)CNCc2ccc(F)cc2)c2ccccc2)cc1 (configuration not stated) | inconclusive: 70.8 µM [inhibitor, single point] | –
53 | COc1cc2c(cc1OC)C(c1cccs1)N(C(=O)c1cccc(S(=O)(=O)N(C)C)c1)CC2 (configuration not stated) | active: 50.1 µM | –
54 | COc1ccc(C2C=C(c3ccc(Cl)cc3)Nc3nc(-c4ccc(Cl)cc4)nn32)cc1 (configuration not stated) | inconclusive: 11.2 µM [inhibitor, partial curve, poor fit] | –
55 | CCOc1c(Br)cc(C2CC(=O)Nc3cc4c(cc32)OCO4)cc1OC (configuration not stated) | inconclusive: 11.2 µM [inhibitor, partial curve, poor fit] | –
56 | COc1ccc(NS(=O)(=O)c2ccc(NC(=S)NC(=O)c3ccc(Br)cc3)cc2)nn1 | active: 17.8 µM | –
57 | FC(F)(F)c1ccc(C2[C@H]3CN(Cc4ccc(-c5ccccc5)cc4)[C@H](c4ccccc4)C34CC2(c2cccnc2)C4)cc1 (some centres not stated) | – | inactive: 12.7% [at 12.7 µM]
58 | COc1ccc(CCNC(=O)c2cccc(Nc3nc4ccccc4nc3-n3nc(C)cc3C)c2)cc1OC | inconclusive: 8.91 µM [inhibitor, partial curve, poor fit] | –
59 | OC1=C(O)c2nc3cc(C(F)(F)F)ccc3nc21 | inconclusive: 56.2 µM [inhibitor, single point] | –
60 | CCN1CCOC(CC(=O)Nc2ccc([N+](=O)[O-])cc2)C1=O (configuration not stated) | inconclusive: 3.16 µM [inhibitor, full curve, poor fit] | –
61 | Cc1ccc(-c2noc(-c3ccc(N4CCN(C)CC4)c([N+](=O)[O-])c3)n2)cc1 | inconclusive: 35.5 µM [inhibitor, partial curve, poor fit] | –
62 | C(=N\NC1=NCCN1)/c1ccncc1 | active: 39.8 µM | –
63 | CCC(C)C(=O)Nc1nc(C)c(-c2csc(Nc3ccc(Cl)cc3)n2)s1 (configuration not stated) | – | inactive: 2.08% [at 0.501 µM]
64 | Cc1cccc(C)c1C(OCCN(C)C)C1CCCCC1 (configuration not stated) | active: 10 µM | –
65 | CC(Oc1ccc2c3c(c(=O)oc2c1)CCCC3)C(=O)NCc1cccnc1 (configuration not stated) | inactive | –
66 | CSC1=NCCN1C(=O)Cc1cccs1 | inconclusive: 89.1 µM [inhibitor, single point] | –
67 | CCOC(=O)c1cc(C(=O)Nc2ccccc2F)nn1C | inconclusive: 89.1 µM [inhibitor, single point] | –
68 | CN(C)S(=O)(=O)Nc1cc(Cl)cc(Cl)c1 | inactive | –
69 | O=C(CC(c1ccccc1)c1cc(Br)ccc1O)NCc1ccco1 (configuration not stated) | inconclusive: 25.1 µM [inhibitor, single point] | –
70 | O=C1CCCN1C(=O)CSc1ncnc2sccc12 | inconclusive: 56.2 µM [inhibitor, partial curve] | –
71 | CC(=O)Nc1ccc(S(=O)(=O)N(Cc2cccnc2)Cc2cc3ccc(C)cc3[nH]c2=O)cc1 | inactive | –
72 | CCOC(=O)c1ccc(-n2c(CCC(=O)O)ccc2-c2ccccc2)cc1 | inconclusive: 28.2 µM [inhibitor, single point] and inconclusive: 1.41 µM [inhibitor, full curve, poor fit] | –

From PubChem BioAssay AID504332 (National Center for Advancing Translational Sciences (NCATS), 2011)
